Test [1] relates to Colletotrichum orbiculare. The note with it: 250 ppm spray (2.5 ml/pot), preventive; 6-10 days after inoculation; control value class.
In test [2] the test system is Magnaporthe grisea. It counts as in vivo. Particulars: 250 ppm spray, preventive; control value class.
Test [3] has as its system Phytophthora infestans. It counts as in vivo. Particulars: 250 ppm spray (2.5 ml/pot), preventive; 5-10 days after inoculation; control value class.

Molecules are shown by their SMILES.

Regarding `CCn1c(-c2c(F)cc(F)cc2F)c(-c2cc(F)ccc2Cl)cc(Cl)c1=O` [Compound 322], in test [1], the “Test H control value (anthracnose on cucumber)” value (“Test H control value” below) is “H (H shows more than 50% of control values)”. For the same compound, in test [2], the “Test A control value (blast on rice)” value is given as “H (H shows more than 50% of control values)”. Further, the “Test F control value (late blight on tomato)” value (“Test F control value” below) in test [3] is reported as “L (L shows 50% or less of control values)”.
`CCn1c(-c2c(F)cccc2F)c(-c2cc(OC)ccc2Cl)cc(OC)c1=O` [Compound 371]: the “Test H control value” value in test [1] is on record as “H (H shows more than 50% of control values)”. Moreover, the “Test A control value (blast on rice)” value in test [2] is given as “H (H shows more than 50% of control values)”. Besides, in test [3], the “Test F control value” value is given as “L (L shows 50% or less of control values)”.
For the compound `Cn1c(-c2c(F)cccc2F)c(-c2ccc(Cl)cc2)ccc1=O` [Compound 280], in test [1], the “Test H control value” value is “H (H shows more than 50% of control values)”. Further, the “Test A control value (blast on rice)” value in test [2] is “H (H shows more than 50% of control values)”. In test [3], the “Test F control value” value was “L (L shows 50% or less of control values)”.
Turning to `COCCOc1ccc(Cl)c(-c2ccc(=O)n(C)c2-c2c(F)cccc2F)c1` [Compound 240], the “Test H control value” value in test [1] is given as “H (H shows more than 50% of control values)”. Also, the “Test A control value (blast on rice)” value in test [2] is recorded as “H (H shows more than 50% of control values)”. Moreover, in test [3], the “Test F control value” value is reported as “L (L shows 50% or less of control values)”.
`CCn1c(-c2ccccc2F)c(-c2cc(OC)cc(OC)c2Br)ccc1=O` [Compound 231]: in test [1], the “Test H control value” value is reported as “H (H shows more than 50% of control values)”. For the same compound, the “Test A control value (blast on rice)” value in test [2] is “H (H shows more than 50% of control values)”. The “Test F control value” value in test [3] is “H (H shows more than 50% of control values)”.
With `Cn1c(-c2c(F)cccc2F)c(-c2cc(OCCC#N)ccc2Cl)ccc1=O` [Compound 251], the “Test H control value” value in test [1] is recorded as “H (H shows more than 50% of control values)”. Moreover, the “Test A control value (blast on rice)” value in test [2] was “H (H shows more than 50% of control values)”. Also, the “Test F control value” value in test [3] is given as “L (L shows 50% or less of control values)”.
Take `Cn1c(-c2c(F)cccc2F)c(-c2cc(OCC#N)ccc2Cl)ccc1=O` [Compound 236]: in test [1], the “Test H control value” value was “H (H shows more than 50% of control values)”. Also, the “Test A control value (blast on rice)” value in test [2] is reported as “H (H shows more than 50% of control values)”. In addition, the “Test F control value” value in test [3] was “L (L shows 50% or less of control values)”.
Consider `CCn1c(-c2c(F)cccc2F)c(-c2cccc(C(F)(F)F)c2)cc(Cl)c1=O` [Compound 299], for which the “Test H control value” value in test [1] is listed as “L (L shows 50% or less of control values)”. Moreover, the “Test A control value (blast on rice)” value in test [2] is given as “H (H shows more than 50% of control values)”. The “Test F control value” value in test [3] is on record as “L (L shows 50% or less of control values)”.
`COc1cc(OC)c(Cl)c(-c2ccc(=O)n(C)c2-c2ccccc2F)c1Cl` [Compound 233]: the “Test H control value” value in test [1] is “L (L shows 50% or less of control values)”. Besides, the “Test A control value (blast on rice)” value in test [2] is listed as “H (H shows more than 50% of control values)”. Further, the “Test F control value” value in test [3] is reported as “H (H shows more than 50% of control values)”.
Regarding `CCn1c(-c2ccccc2F)c(-c2cc(OC)cc(OC)c2Cl)ccc1=O` [Compound 232], the “Test H control value” value in test [1] was “H (H shows more than 50% of control values)”. Further, the “Test A control value (blast on rice)” value in test [2] is “H (H shows more than 50% of control values)”. Moreover, in test [3], the “Test F control value” value was “L (L shows 50% or less of control values)”.
With `CCn1c(-c2c(F)cccc2F)c(-c2cc(OCCC[Si](C)(C)C)ccc2Cl)ccc1=O` [Compound 275], the “Test H control value” value in test [1] is “L (L shows 50% or less of control values)”. Also, the “Test A control value (blast on rice)” value in test [2] was “L (L shows 50% or less of control values)”. Further, the “Test F control value” value in test [3] is given as “L (L shows 50% or less of control values)”.

The values above are taken from patent US10299477B2 (priority 2015, dated 2019).
